In patent US5744298A, “DNA sequences which encode immunoreactive HCMV-specific peptides” (Behringwerke Aktiengesellschaft, priority 1991, dated 1998):
Not every detail of the peptide structures is certain; ends, links or a residue may be inferred. Where no end group is shown, it is not given here.

Test system: CMV IgG-positive sera
Test: ELISA of peptide-coated microtiter plates with CMV IgG-positive human sera (localization of epitopes)
Type: binding
Settings: plate coated with 2.5 μg peptide per ml, serum dilution 1:2; for Reactivity (individual reactivities of particularly reactive peptides with the assayed group of CMV IgG-positive sera, in percent): Table 3; for Reactivity (individual reactivities of the synthetic pXP1 segments with the assayed group of CMV IgG-positive sera, in percent): Table 2
Protocol: A microtiter plate with 96 wells was coated with a synthesized peptide. To do this, a solution of 2.5 μg of peptide per ml of carbonate buffer was made up and introduced in 100 μl portions into the wells for the coating. The peptides were adsorbed onto the surfaces at 4° C. overnight and, after removal of the peptide solution, the wells were washed several times with washing buffer (50 mM Tris, pH 7.2, 10 mM EDTA, 0.2% Tween 20). Then individual human serum samples in a 1:2 dilution were introduced and incubated at 37° C. for 1 hour. After another washing step, the conjugate antibody specific for human IgG antibodies or human IgM antibodies and labeled with peroxidase was added and the mixture was incubated at room temperature for 0.5 hour. The reaction was subsequently stopped by adding 0.5M sulfuric acid and extinction of the individual samples was measured at a wavelength of 450/650 nm in a photometer.
To test the immunogenicity, peptides of various length from the complete amino-acid sequence region from 718 to 880 of the HCMV protein pp150 (Tab. 2 and 3) were synthesized as described in Example 1. Subsequently, as in Example 2, the microtiter plates were coated with the synthesized peptides, and the immunological reactivity was assayed. […] The three immunologically reactive peptides have the following sequences: […]

Row | Substance | Reactivity (individual reactivities of particularly reactive peptides with the assayed group of CMV IgG-positive sera, in percent) [%] | Reactivity (individual reactivities of the synthetic pXP1 segments with the assayed group of CMV IgG-positive sera, in percent) [%]
1 | PAGAGAAILTPTPVNPSTAPAPAPTPTFAGT [Peptide 1.10, pro ala gly ala gly ala ala ile leu thr pro thr pro val asn pro ser thr ala pro ala pro ala pro thr pro thr phe ala gly thr] | 80 | –
2 | GAGAAILTPTPVNPSTAPAPAPTPTFAGTQTP [Peptide 1.12, gly ala gly ala ala ile leu thr pro thr pro val asn pro ser thr ala pro ala pro ala pro thr pro thr phe ala gly thr gln thr pro] | 80 | –
3 | DMNPANWPRERAWALKNPHLAYNPFRMPTTSTA [Peptide 2.9, asp met asn pro ala asn trp pro arg glu arg ala trp ala leu lys asn pro his leu ala tyr asn pro phe arg met pro thr thr ser thr ala] | 80 | –
4 | LTFGAGVNVPAGAGAAIL [SEQ ID NO: 40, leu thr phe gly ala gly val asn val pro ala gly ala gly ala ala ile leu] | – | 60
5 | VNPSTAPAPAPT [SEQ ID NO: 46, val asn pro ser thr ala pro ala pro ala pro thr] | – | 10
6 | AYKFEQPTLTFGAGVNVPAGAGAAILTPTPVNPSTAPAPAP-NH2 [Peptide 1.15, ala tyr lys phe glu gln pro thr leu thr phe gly ala gly val asn val pro ala gly ala gly ala ala ile leu thr pro thr pro val asn pro ser thr ala pro ala pro ala pro NH2] | 85 | 85
7 | DMNPANWPRERAWALKNPHLAYNPF [Peptide 2.1, asp met asn pro ala asn trp pro arg glu arg ala trp ala leu lys asn pro his leu ala tyr asn pro phe] | 80 | 80
8 | FEQPTLTFGAGVNVPAGAGAAILTPTPVNPSTA [Peptide 1.3, phe glu gln pro thr leu thr phe gly ala gly val asn val pro ala gly ala gly ala ala ile leu thr pro thr pro val asn pro ser thr ala] | 85 | –
9 | ANWPRERAWALKNPHLA [Peptide 2.8, ala asn trp pro arg glu arg ala trp ala leu lys asn pro his leu ala] | 70 | 70
10 | PRAAVTQTASRDAA [Peptide 3.1, pro arg ala ala val thr gln thr ala ser arg asp ala ala] | 60 | 60
11 | PANWPRERAWALKNPHLAYN [Peptide 2.4, pro ala asn trp pro arg glu arg ala trp ala leu lys asn pro his leu ala tyr asn] | 70 | –
12 | ITDTETSAKPPVTTAYKFEQPTL [SEQ ID NO: 49, ile thr asp thr glu thr ser ala lys pro pro val thr thr ala tyr lys phe glu gln pro thr leu] | – | 20
13 | DPRFTDTLVDITDTETSAKPPV [SEQ ID NO: 34, asp pro arg phe thr asp thr leu val asp ile thr asp thr glu thr ser ala lys pro pro val] | – | 20
14 | HLAYNPFRMPTTSTA [SEQ ID NO: 47, his leu ala tyr asn pro phe arg met pro thr thr ser thr ala] | – | 60
15 | AGAAILTPTPV [SEQ ID NO: 45, ala gly ala ala ile leu thr pro thr pro val] | – | 40
16 | KFEQPTLTFGAGV [SEQ ID NO: 44, lys phe glu gln pro thr leu thr phe gly ala gly val] | – | 20

Row | Substance | Reactivity (individual reactivities of particularly reactive peptides with the assayed group of CMV IgG-positive sera, in percent) [%] | Reactivity (individual reactivities of the synthetic pXP1 segments with the assayed group of CMV IgG-positive sera, in percent) [%]
17 | PAGAGAAILTPTPVNPSTAPA [Peptide 1.8, pro ala gly ala gly ala ala ile leu thr pro thr pro val asn pro ser thr ala pro ala] | 70 | –
18 | DMNPANWPRERAWALKNPHL [Peptide 2.2, asp met asn pro ala asn trp pro arg glu arg ala trp ala leu lys asn pro his leu] | 75 | –
19 | PFRMPTTSTASQNTV [SEQ ID NO: 42, pro phe arg met pro thr thr ser thr ala ser gln asn thr val] | – | 60
20 | QNTVSTTPRRPSTPRAAVTQTA [SEQ ID NO: 37, gln asn thr val ser thr thr pro arg arg pro ser thr pro arg ala ala val thr gln thr ala] | – | 40
21 | RAWALKNPHLAYNPF [Peptide 2.10, arg ala trp ala leu lys asn pro his leu ala tyr asn pro phe] | 80 | 80
22 | GTQTPVNGNSPWAPTA [SEQ ID NO: 38, gly thr gln thr pro val asn gly asn ser pro trp ala pro thr ala] | – | 20
23 | WPRERAWALKNPHLAYNPFR [Peptide 2.5, trp pro arg glu arg ala trp ala leu lys asn pro his leu ala tyr asn pro phe arg] | 80 | –
24 | PTLTFGAGVNVPAGAGAAILTPTPVNPSTAPAPA [Peptide 1.5, pro thr leu thr phe gly ala gly val asn val pro ala gly ala gly ala ala ile leu thr pro thr pro val asn pro ser thr ala pro ala pro ala] | 80 | –
25 | AYKFEQPTLTFGAGVNVPAGAGAAILTPTPVNPSTAPAPAPTPTFAGTQTP [Peptide 1.14, ala tyr lys phe glu gln pro thr leu thr phe gly ala gly val asn val pro ala gly ala gly ala ala ile leu thr pro thr pro val asn pro ser thr ala pro ala pro ala pro thr pro thr phe ala gly thr gln thr pro] | 60 | –
26 | FEQPTLTFGAGVNVPAGAGAAILTPTPV [Peptide 1.2, phe glu gln pro thr leu thr phe gly ala gly val asn val pro ala gly ala gly ala ala ile leu thr pro thr pro val] | 80 | –
27 | APTAPLPGDMNPA [SEQ ID NO: 36, ala pro thr ala pro leu pro gly asp met asn pro ala] | – | 30
28 | GAGVNVPAGAGAAILTPTPVNPSTAPAPA [Peptide 1.16, gly ala gly val asn val pro ala gly ala gly ala ala ile leu thr pro thr pro val asn pro ser thr ala pro ala pro ala] | 70 | –
29 | VNVPAGAGAAILTPTPVNPSTAPAPAPTPTF [Peptide 1.9, val asn val pro ala gly ala gly ala ala ile leu thr pro thr pro val asn pro ser thr ala pro ala pro ala pro thr pro thr phe] | 70 | –
30 | ASRDAADEVWALRDQTA [Peptide 3.2, ala ser arg asp ala ala asp glu val trp ala leu arg asp gln thr ala] | 80 | 80
31 | ETSAKPPVTTAYKFE [SEQ ID NO: 43, glu thr ser ala lys pro pro val thr thr ala tyr lys phe glu] | – | 10
32 | ILTPTPVNPSTAPA [SEQ ID NO: 41, ile leu thr pro thr pro val asn pro ser thr ala pro ala] | – | 40
